Source: ChEMBL document CHEMBL4888484, “Replenishing the malaria drug discovery pipeline: Screening and hit evaluation of the MMV Hit Generation Library 1 (HGL1) against asexual blood stage Plasmodium falciparum ,using a nano luciferase reporter read-out” (2022)
Among all 150,000 compounds or so, about 540 (0.36%) showed an effect of 50% or more. The list shows a part of the results.

system: Plasmodium falciparum; experiment: Primary screen in NF54 nanoGlo assay, in single point, at 2uM, 72h; a lower Z score goes with more inhibition; type: functional, Erythrocyte; details: timepoint 72 hour

SMILES | % Inhibition [%] | Z score
O=C(Nc1ccc2c(c1)OCO2)c1ccc(-c2ccccc2F)s1 | -15 | 1.4
N#Cc1cccc(-c2nccn2CCc2cnn(-c3ccccc3)c2)c1 | -2 | 0.23
COc1ccc(C)cc1NC(=O)[C@H]1CCCN(S(=O)(=O)c2cc3c(cc2C)NC(=O)CO3)C1 | -10 | 1.16
O=C(Cc1ccccc1F)N1CC[C@H](OCc2ccccc2)C1 | -6 | 1.03
CCNC(=O)[C@H]1CCN(S(=O)(=O)c2cc(-n3cccn3)ccc2OC)C1 | -17 | 2.17
CC1CCC(CC[C@](C)(O)C#CCN(C)C)CC1 (some centres not stated) | 6 | -1.16
Fc1ccccc1N1CCN(c2c3c(nc4nc(Cc5ccc(Cl)cc5)nn24)CCCC3)CC1 | 33 | -0.73
Cc1ccc2[nH]c(=O)c(CN3CCC(C(=O)N4CCCC4)CC3)cc2c1 | 6 | -0.53
CC[C@H]1CN(C(=O)c2coc(COc3ccc(OC)cc3)n2)CCN1 | 4 | -0.43
COc1ccc([C@@H](NC(=O)NCC(F)F)C(F)(F)F)cc1F | -1 | 0.14
CN1CCCN(c2ccc(CNC(=O)c3ccc(Oc4ccccc4)cc3)cn2)CC1 | -6 | 0.68
Cc1cccc(-c2noc(C3C4CCC(O4)C3C(F)(F)F)n2)c1F (configuration not stated) | 0 | -0.09
COCc1nc([C@@H]2CCCCCN2CC(=O)N2CCCCC2)no1 | -1 | 0.06
CCCCc1nc(N2CCCN(C(=O)Nc3ccccc3)CC2)c2c(-c3ccc4ccccc4c3)noc2n1 | -9 | 1.42
O=C(CCc1nnc(CCc2c[nH]c3ccccc23)o1)N1CCCCCC1 | -9 | 1.25
O=C(CN1CCCCCC1)N1[C@@H]2CC[C@H]1C[C@@H](O)C2 | -3 | 0.39
CC(C)CS(=O)(=O)NC[C@H]1CN(C)C(=O)CO1 | -6 | 0.91
O=C1N(CCC2CCCCC2)CCC[C@@]1(O)CNC1CCC1 | 26 | -3.47
O=C(Nc1ncc2[nH]ccc2c1Br)[C@H]1CCCO1 | -8 | 0.75
CCCCN1CCN(c2ncc(F)c(OC)n2)CC1=O | -15 | 2.49
COc1ccc(NC(=O)N(C)CCc2c(C)nn(C)c2C)cc1OC | -3 | 0.4

SMILES | % Inhibition [%] | Z score
CN1CCN(c2ccc(CNC(=O)[C@H]3CCc4sc(C(=O)N(C)C)cc4C3)cc2)CC1 | -6 | 1.22
CCN(C(=O)c1cccc2cc[nH]c12)[C@H]1CCN(Cc2ccccc2)C1 | -7 | 1.3
COc1ccc(CN(Cc2ccco2)C(=O)c2ccccc2F)cc1OCc1nc(CO)cs1 | -5 | 0.84
CC(C)(C)CN1CCCC(N2CCC(n3ccnn3)C2)C1=O (configuration not stated) | 1 | -0.17
C=CCCS(=O)(=O)Nc1ccc(-n2cncn2)nc1 | -1 | 0.14
COc1cccc(CN2CCC(n3ccnc3)CC2)c1OC(C)C | -8 | 0.99
COc1ccc(F)cc1C(=O)N1CC(C)[S+]([O-])C(C)C1 (configuration not stated) | -8 | 1.28
NC(=O)c1cc(Cl)cc(S(=O)(=O)NC[C@H]2CC[C@@H](CO)O2)c1 | 7 | -0.99
CCOc1cccc2[nH]cc(CCNC(=O)[C@@H]3CCCO3)c12 | -8 | 0.81
O=C(c1ccccn1)N1CC[C@H](Nc2ncccc2C(F)(F)F)[C@@H](O)C1 | -11 | 1.66
CCn1ncc(N2CCC[C@H](CC(=O)Nc3cccc(OC)c3)C2)cc1=O | -8 | 1.02
Cc1nn(C)c(C)c1S(=O)(=O)N1CCC(OCCOc2cccnc2)CC1 | -5 | 0.76
Cc1ncc(NC(=O)c2scnc2C2CC2)c(C2CC2)n1 | -2 | 0.3
Cc1ccc(-n2nc(CC(C)C)nc2-c2cnc[nH]c2=O)cc1C | -11 | 1.22
N#C/C(=C(/O)c1ccc(F)cc1)c1nc2ccccc2s1 | -31 | 3.61
CN(C1CCCCCC1)S(=O)(=O)c1cccs1 | -17 | 1.45
CC(O)C(NC(=O)C1CCCC1)C(=O)N[C@H](C(N)=O)C(C)(C)C (some centres not stated) | -9 | 1.19
COc1cc2cc(CN[C@H]3CCOC(C)(C)C3)c(=O)n(Cc3ccc(C)cc3)c2cc1OC | -1 | 0.15
C[C@H]1OCCN(Cc2ccc(C#N)cc2Br)[C@@H]1C(N)=O | -12 | 1.55
CCOC(=O)C1CCN(C(=O)c2ccccc2N(C)S(=O)(=O)c2ccccc2)CC1 | 0 | -0.06
